Assay results published in article PMC10726135.
The other results are listed elsewhere or left out. At the low end of the ranking the order means little. The protein was read in a cell extract, so binding may be indirect.

molecular target: T1, HNF4alpha8 (COS-7 nuclear extract) (UniProt P41235-5); assay: protein-binding microarray; settings: COS-7 nuclear extract on double-stranded Agilent 4x180k PBM; binding buffer, salt, pH and temperature not given; high values mean tight binding; double strand, one strand shown; sequences stand for … in …GCCTAGGGAGATTAGAGTATCGGTCGA
T1 sequence: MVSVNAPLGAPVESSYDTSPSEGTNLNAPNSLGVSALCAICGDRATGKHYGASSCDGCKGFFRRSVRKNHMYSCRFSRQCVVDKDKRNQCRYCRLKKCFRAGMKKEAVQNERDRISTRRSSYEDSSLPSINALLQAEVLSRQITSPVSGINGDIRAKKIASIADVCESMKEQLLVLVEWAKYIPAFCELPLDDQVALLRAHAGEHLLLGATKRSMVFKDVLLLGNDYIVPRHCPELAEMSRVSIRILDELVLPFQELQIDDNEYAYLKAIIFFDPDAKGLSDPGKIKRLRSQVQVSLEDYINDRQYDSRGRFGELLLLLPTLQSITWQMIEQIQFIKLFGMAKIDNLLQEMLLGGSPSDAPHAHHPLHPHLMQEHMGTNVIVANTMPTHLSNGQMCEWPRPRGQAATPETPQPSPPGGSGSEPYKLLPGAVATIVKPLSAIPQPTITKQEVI

Sequence | binding signal (log2 normalized intensity)
GTGGCTAGAACCCAGGCACAGGTCCTACTC | -1.39
TCGGCTTCATTAGCAAATAACAAAGGGCAC | 3.74
TGAGGCCCCAGTGTCAATTCTCATTCATCC | -0.101
AAAATAGCCAAAATAAAGCAGCAAACCAGA | -1.36
ATCAGCGTTGAGCCTTTTGTCCCAAGGAGA | 0.69
GGGAGATCTTCAGTAAGAGGATTTCTTCGC | -1.26
CACTGAGATAAAAATGGCCAAAGGTTGCCA | 2.84
GAATTTCAGAAGCAGGTCAATAGGGCAGGG | 3.03
TATCTGTTTATTTTGCAATTAACAAAGAGA | 0.493
GGAAGGGAGAGATAAGAAAAACTGAGCTTT | -1.25
ATCCAGAGGTCACCCAGAGCGTCCCACCTG | -0.956
GCAAACTATGTGAGGAATCTAAGATAAGCA | -1.14
CAGGCTGTTTTCCTATAGATTTGTTAAATC | 1.38
GTTCGATAAAAAACAATTTACAACCTGCTC | -1.4
TTGCAGAAGGCAGCCAAACAGAGGCTGAAA | -1.28
AAGGTATCCTCCTAGAGTCCAAGGTATAAA | 2.65
GGGGGGTGGGGTGGAAGCTATGCCTGAGGC | -1.29
GAACCAAGAGAGCCATTGGTGTAACTCTGG | -1.21
CTTAAATTGTGCTGTGTCAGAGTTGTCCTG | 2.11
AAGGCCAAGCCAGTTTCCAGGGAGGAGAGA | -1.26
GAATGGAGACACACCTGCGGTGACTGGAAG | -1.34
AAGACTCAGTCGGCTGTCAAATCACTGAAG | -1.34
AAGAAGAGCCCAGACAAGCATTCTGCTGAA | -1.2
TCACATACCAGTAAAAACAACTGCCACTTA | -1.3

Sequence | binding signal (log2 normalized intensity)
TGAAGTCATATTGAACTCACTGACTTCCAT | 1.29
CCTAAGGCCTCCAGAAGGAATGCAGCCCTG | -1.33
CCAAAATGTGTTAGGCAAGCAAACTGCAAA | -1.23
ATATTTGCCAAGTGATAAGGAACCTAGGAA | -1.33
GGGGGTGAGTCAGTCCCCAGCAATTGGGAA | -1.18
AATGGACAACGGAAAGACAGAGGTGAGGCT | -1.34
GTGCAGTGATCAATCAGCAGCAAAGTCCTG | -1.22
CCCTTCCTCGGTGGAGTTGACACAGACCTG | -0.0209
TGCAGTATGCCCCCCCACCCCACACACACA | 6.83
CGGAGCGCGCGGGAGGAGGAGACAAAGGCC | 2.44
GTATGTGAATGCCTGGGCATGGCTGTGTTC | 1.36
AGGCTGGGGCCCCATCGACCTTTGCTCCCG | 10.5
CAGTGGACTTTGTCCTTCATCTATCTCCTT | 5.95
AGGCCATAGGGAAAGATAAAAAAGTTCCAG | -1.42
GCTAATGAGCACATTCTTCAATATCAGTGG | 0.488
TCAGCGGCCCTGTGCTGCCCCCGATAGCAC | 4.82
CACTGGAGGTTGAATTCCAAAGGTTATTTT | 4.12
CCCACCTCCGGCCGGGAAGATGCCAGCCCC | 2.68
ATAGATAAGCACACTAAGGCTAAAGATTAC | -1.3
AAACATTAGCCAGGATCAGATTTGATAGCT | -1.39
TTTATTCAGGTGGCCACTGGCCCAGCGGAT | -0.502
GGTATGTTTGTGATATTGTGAAATATATAT | 1.86
TCTCTTTTAGGCTGTCAGCCACCAAAGCAG | -1.28
AACATTTTTGCAACATGAGGAGCCAAGTTT | -0.993

Sequence | binding signal (log2 normalized intensity)
GAGCATCCAGATAAAGCTGAAGAAAGCAGG | -1.3
CCAATGGCTAAGGTCACCATGACCATAAAC | 0.466
TCTGCAGACATGGACTCTGGGATCTCAGGG | 1.82
CAGTTTGACCTTTGCATTCTTACCCAAGCC | 5.1
CTGTGCCATGCTTTTCAGTGCAAGGGACCT | 0.742
TGATCTACAGTCAGAGGCCTGAAGGCCCCC | 1.97
TATCTTCAAAGCCAGCAACGGTGAGTCAAG | -0.794
GAGAAAGGGGCTTAGGGAGGGTGAAGGTCA | 3.29
CCCCAGGCTGAGCGTGAACACCGGCCCCCT | 4.08
AAGTGGCTCACCCAAGTCACACAGTTAGAA | -1.2
AAACTTCCACTAACTTGAGTGTGCACCCTG | 1.93
CAAAGTGGAATTTGAACCTACACCTATGTG | 4.42
TTGAAGCAGAGTGTCCCATATCACATTTTA | 0.668
ACCAGAGGGAAGAGATCATGGCCGATCGAC | -1.3
CCACAGCCCAACTCGGAGGACTGAGCCCGC | -1.31
TCCTAGTCTTTAGAGTAACCATTCTTTCTG | 0.704
TAACTCTCCAAATTCCAGGATCCAAGATCC | -1.3
TGAGACTGCCTCAAACAGCTTCGCCTCCTC | -1.33
CTTCAAAGGAGTGGAGGAAGGAAGAAGTGT | -1.35
GCAGAAGGTCAGGTGAATCAACGATAAGGG | -1.35
CCACAAGGGGGGAGCACCTCCCAACGTGCC | -1.43
GTTTAGTGAGCTGTCTAATTTTGCACAGCC | -1.09
GATCCTCCCACTTCAGCCTCCCGAGTAGTT | 2.67
CTAGACCCACATCCTGTCAGACCAAGGCTG | -1.31
